From PubChem BioAssay AID2451 (National Center for Advancing Translational Sciences (NCATS), 2010)
“And” between values parts separate entries of the source, which are not always exact repeats. Identical values can stand only once. About 2,100 (0.72%) of roughly 290,000 compounds were called active. Inconclusive means that the source gave no clear call. Such entries were picked first, then a sample of the others. The call rests on the fitted dose curve; in most records, active means well fitted inhibition curve with a large enough effect; inconclusive means small, poorly fitted or top-dose-only effect, or effect the other way; inactive means flat fitted curve, though single readings scatter. Potencies of inconclusive entries are doubtful fits and often do not repeat.

Target: Fructose-bisphosphate aldolase (Giardia intestinalis (strain ATCC 50803 / WB clone C6)) (UniProt A8B2U2)
Chain of UniProt A8B2U2 (A8B2U2 whole entry, looked up): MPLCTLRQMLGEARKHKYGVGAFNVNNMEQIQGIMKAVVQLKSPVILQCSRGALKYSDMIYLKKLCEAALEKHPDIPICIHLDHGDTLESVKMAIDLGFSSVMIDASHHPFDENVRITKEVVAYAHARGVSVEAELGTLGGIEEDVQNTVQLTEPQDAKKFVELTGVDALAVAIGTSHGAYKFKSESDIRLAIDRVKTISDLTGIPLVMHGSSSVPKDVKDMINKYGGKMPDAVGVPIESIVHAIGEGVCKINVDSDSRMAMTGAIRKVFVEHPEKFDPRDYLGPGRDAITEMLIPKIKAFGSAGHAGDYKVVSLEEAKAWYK
Assay: qHTS Assay for Inhibitors of Fructose-1,6-bisphosphate Aldolase from Giardia Lamblia; further: nearly all actives have a fitted effect of over 55% in size
Conditions: purified Giardia FBPA; activity, negative = inhibition: at 59.6 µM (top of the series) unless noted
How it was run: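 Giardia FBPA (40 nM reagent) was preincubated 10 min at RT with compound (up to 57.5 uM final), then substrate plus GAPDH/TPI/NAD/arsenate coupling system with diaphorase/resazurin was added; resorufin fluorescence (525/598 nm) was read after 20 min.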
On the % scale 0 is the no-effect control and ±100 the full control effect; potency means the concentration at half of the fitted maximal effect; tags describe the fitted curve by direction and shape.

SMILES | Potency | activity, negative = inhibition
Nc1ccc(Br)c2c1C(=O)c1ccccc1C2=O | inactive | 
Cc1c(N2C(=O)/C(=C\c3ccc(N(C)C)cc3)N(C)C2=S)c(=O)n(-c2ccccc2)n1C | inactive | 
CC(=O)N1CCN(C(=S)NC(=O)c2ccc(S(=O)(=O)N3CCOCC3)cc2)CC1 | active: 14.1 µM | 
Cc1ccc(S(=O)(=O)Nc2cccc3ccc(C)nc23)cc1 | inconclusive: 15.8 µM [inhibitor, partial curve] | 
CC1CCCCN1S(=O)(=O)c1ccc(C(=O)Nc2nnc(-c3ccccn3)o2)cc1 (stereo unspecified) | active: 17.7 µM | 
O=C(O)C1C2C=CC3(CN(Cc4ccco4)C(=O)C13)O2 (stereo unspecified) | inactive | 
CCN(CC)C(=O)N[C@H]1C[C@@H]2c3cccc4[nH]cc(c34)C[C@H]2N(C)C1 | inactive | 
Oc1c(C(c2ccc(Cl)cc2)N2CCCC2)cc(Cl)c2cccnc12 (stereo unspecified) | inconclusive: 31.5 µM [inhibitor, single point] | 
CCc1ccccc1NC(=S)NN | active: 15.8 µM | 
C=CCNC1=C2C[C@@H](C)C[C@H](OC)[C@H](O)[C@@H](C)/C=C(\C)[C@H](OC(N)=O)[C@@H](OC)/C=C/C=C(\C)C(=O)NC(=CC1=O)C2=O | inconclusive: 2.51 µM [inhibitor, partial curve] | 
CC(=O)Nc1nnc(SCc2ccc(C(=O)Nc3ccccc3F)cc2)s1 | inactive | 
CC(=O)Nc1ccc(Nc2ccc(N3C(=O)CCCC3=O)cc2[N+](=O)[O-])cc1 | inactive | 
CCN(Cc1ccncc1)Cc1ccc(OC)cc1OC | inconclusive: 25.1 µM [inhibitor, partial curve] | 
CC(C)(C)c1ccc(/C([O-])=C(/C(=S)NCc2ccco2)[n+]2ccccc2)cc1 | inconclusive: 15.8 µM [inhibitor, partial curve] | 
CCOc1ccc(-n2c(=O)c3sccc3n(CC(=O)NC3CCCCC3)c2=O)cc1 | inactive | 
CC(=O)Oc1ccc(/C=N/NS(=O)(=O)c2ccc(C)cc2)c(OC(C)=O)c1 | inconclusive: 20 µM [inhibitor, single point] | 
O=C(c1cc2ccccc2c(=O)o1)N1CCCCCC1 | inactive | 
CCCCN(CC)S(=O)(=O)c1ccc(C(=O)Nc2nnc(-c3ccccc3Cl)o2)cc1 | inconclusive: 19.9 µM [activator, single point] | 
COc1cccc(C(=O)O/N=C(\N)c2ccccn2)c1 | inactive | 
CCOC(=O)c1csc(NC(=O)c2ccccc2)n1 | inactive | 
O=C(Nc1cc(Cl)cc2c1[nH]c1cnccc12)c1cccnc1 | inconclusive: 15.8 µM [inhibitor, single point] | 
COc1cc(C(=S)N(C)C)ccc1O | inconclusive: 5 µM [inhibitor, single point] | 
C#CC[N+](CC)(CC)CC#Cc1ccccc1 | inactive | 
O=C(O)COn1c(-c2ccc(Cl)cc2)nc2ccc(Cl)cc21 | inconclusive: 14.1 µM [inhibitor, partial curve] | 
CCCn1cnc2c(N)c(C)c(C)cc21 | inactive | 
CCOc1cc(N2CCOCC2)c(OCC)cc1NC(=O)Cc1ccc(OC)c(OC)c1 | inconclusive: 7.06 µM [inhibitor, partial curve] | 

SMILES | Potency | activity, negative = inhibition
COc1ccc(Oc2ncc3nc(-c4ccc(F)cc4)c(=O)n(CCC#N)c3n2)cc1 | inactive | 
N#CC(c1ccc(Cl)cc1)c1ccc(Cl)nn1 (stereo unspecified) | inactive | 
Cc1nc(C(F)(F)F)c(C(=O)N/N=C(\N)c2cccnc2)s1 | inconclusive: 17.7 µM [inhibitor, partial curve] | 
CC1(OC(=O)CCc2ccccc2)C(=O)C=C2C=C(c3ccc(C#N)cc3)N(CCc3ccccn3)C=C2C1=O (stereo unspecified) | inconclusive: 1.99 µM [inhibitor, partial curve] | 
Cn1cccc1-c1nc2ccc(NC(=O)c3ccco3)cc2[nH]1 | inactive | 
Cn1c(=O)c2c(nc(CN3CCc4ccccc4C3)n2Cc2ccccc2F)n(C)c1=O | inconclusive: 7.06 µM [inhibitor, partial curve] | 
Cn1c(=O)c(=O)n(C)c2cc(N3CCOCC3)c(NS(=O)(=O)c3ccc(F)c(Cl)c3)cc21 | inconclusive: 15.8 µM [inhibitor, partial curve] | 
O=C(NC(=S)NN1CCCCC1c1cccnc1)c1ccc(Cl)cc1Cl (stereo unspecified) | inconclusive: 17.7 µM [inhibitor, single point] | 
CC(=O)Nc1ccc(NC(=O)c2ccc(CSc3ccccc3)o2)cc1 | inactive | 
CCN(CC)c1ccc(C(=O)c2ccccc2C(=O)O)c(O)c1 | inactive | 
Cc1ccc(S(=O)(=O)NCC(=O)N(CC(=O)NC2CCCC2)c2ccc3c(c2)OCCO3)cc1 | inactive | 
N#Cc1c(C(F)(F)F)cc(-c2ccccc2)[nH]c1=O | inconclusive: 17.7 µM [activator, single point] | 
COc1cc(/C=N/Nc2ccc(C)cc2)cc(Br)c1O | inconclusive: 15.8 µM [inhibitor, single point] | 
O=C(CCN1C(=O)c2ccccc2C1=O)N1CCN(c2ccccc2)CC1 | inactive | 
C=CCn1c(-c2ccc(=O)n(Cc3ccccc3)c2)n[nH]c1=S | inconclusive: 5.61 µM [inhibitor, partial curve] | 
CCOc1ccc(/C=N/n2c(COc3ccccc3)n[nH]c2=S)cc1OC | inconclusive: 22.4 µM [activator, partial curve] | 
O=C(O)C1Cn2c(nc3c(c2=O)C2(CCCC2)Cc2ccccc2-3)S1 (stereo unspecified) | inconclusive: 17.7 µM [activator, single point] | 
Cc1cc(C)c(S(=O)(=O)Nc2ccc(O)c(Sc3ncn[nH]3)c2)cc1C | inconclusive: 14.1 µM [inhibitor, partial curve] | 
CC(C)(C)NC(=S)NNC(=O)c1ccc2ncccc2c1 | inactive | 
CCCn1c(N/N=C(C)\C=C\c2ccccc2)nc2c1c(=O)[nH]c(=O)n2C | inconclusive: 19.9 µM [inhibitor, partial curve] | 
COc1ccccc1/C=N/NC(=O)CC(=O)NCc1ccccc1 | active: 17.7 µM | 
Brc1ccc(OCCCOc2cccc3cccnc23)cc1 | inactive | 
CC(=O)Nc1c(C(=O)Nc2ccc3c(c2)OCO3)oc2ccccc12 |  | inconclusive: 54.8% [activator]
Cn1cnnc1SCc1ccc(-c2ccc(Br)cc2)o1 | inactive | 
CCN1CCN(CC(=O)c2ccc(C)cc2)CC1 | inconclusive: 15.8 µM [inhibitor, partial curve] | 
Nc1ccccc1Sc1nc2ccccc2[nH]1 | inactive | 

SMILES | Potency | activity, negative = inhibition
O=c1oc2ccccc2cc1-c1nc(-c2cccs2)cs1 | inactive | 
O=C(Nc1nnc(-c2cccnc2)o1)c1cccc(Cl)c1 | inconclusive: 17.7 µM [inhibitor, single point] | 
C=CCN(c1ccccc1)S(=O)(=O)c1cccc(C(=O)Nc2nnc(SCC)s2)c1 | inactive | 
N#Cc1ccc(C(=O)Nc2nnc(-c3cccs3)o2)cc1 | inconclusive: 12.6 µM [inhibitor, partial curve] | 
COc1cccc(-n2nnc3c(=O)n(CC(=O)N4CCC(Cc5ccccc5)CC4)cnc32)c1 | inactive | 
CCOC(=O)C(C(C)=O)c1c(Br)c(O)c(O)c2c(C(=O)c3ccc(C)cc3)coc12 (stereo unspecified) | inconclusive: 17.7 µM [inhibitor, partial curve] | 
CCOC(=O)Nc1c(O)ccc2oc(C)c(-c3ccccc3)c12 | inconclusive: 17.7 µM [inhibitor, partial curve] | 
S=c1[nH]cnc2scc(-c3ccc(Br)cc3)c12 | inactive | 
COc1cc2c(cc1OC)C(c1ccccc1Cl)N(C)CC2 (stereo unspecified) | inconclusive: 31.6 µM [inhibitor, single point] | 
COc1ccc(C(CCN2CCCCC2)c2c(O)cc(OC)cc2OC)cc1 (stereo unspecified) | inconclusive: 19.9 µM [inhibitor, single point] and inconclusive: 17.7 µM [inhibitor, partial curve] | 
O=C(Nc1ccc(SC(F)F)cc1)C12CCC(CC1)C2 | inconclusive: 19.9 µM [inhibitor, partial curve] | 
COc1ccccc1OCC#CCN1CCCCCC1 | inconclusive: 19.9 µM [inhibitor, partial curve] | 
CCOc1cc(CN2CCN(c3ccc(C(C)=O)cc3)CC2)ccc1OC | inconclusive: 15.8 µM [inhibitor, partial curve] | 
COc1cc(CNc2ccc3[nH]c(=O)[nH]c3c2)ccc1OCc1ccc(F)cc1 | inactive | 
CCCN1CC(C)C(OC(C)=O)(c2ccccc2)CC1C (stereo unspecified) | inactive | 
CCOC(=O)c1sc(Nc2ccc(Br)cc2)nc1C | inconclusive: 22.3 µM [inhibitor, single point] | 
CNC(=O)N(O)C1N(NC(=O)Nc2cccc3ccccc23)C(=S)SC1(C)C (stereo unspecified) | inconclusive: 15.8 µM [inhibitor, single point] | 
CCOC(=O)C1CCN(S(=O)(=O)c2cccc3nonc23)CC1 | inactive | 
Cc1ccc(C(=O)c2coc3ccc(O)c(Cl)c23)cc1 | inconclusive: 15.8 µM [inhibitor, single point] | 
Cc1nc(NC(=O)c2ccco2)sc1C(=O)O | inactive | 
CCOC(=O)COc1ccc(C(c2c(C)[nH][nH]c2=O)c2c(C)[nH][nH]c2=O)cc1 | inconclusive: 25.1 µM [inhibitor, single point] | 
O=C(NCCNC1CCN(Cc2ccccc2)CC1)c1cccs1 | inconclusive: 15.8 µM [inhibitor, single point] | 
CCSC1=N/C(=C\c2ccccc2)C(=O)N1c1ccc(OC)cc1 | inactive | 
N#CC(C#N)=NNc1cccc(Cl)c1 | inconclusive: 35.4 µM [activator, single point] | 
